The source of these data is the supplement of paper PMC3334620.

Over roughly 33,000 sequences, “E-score (-0.5 to 0.5)” has its median near -0.032; the highest 2% begin near 0.36. Some of the results follow.

This test addresses T1, Sko1 (UniProt Q02100).
T1 sequence: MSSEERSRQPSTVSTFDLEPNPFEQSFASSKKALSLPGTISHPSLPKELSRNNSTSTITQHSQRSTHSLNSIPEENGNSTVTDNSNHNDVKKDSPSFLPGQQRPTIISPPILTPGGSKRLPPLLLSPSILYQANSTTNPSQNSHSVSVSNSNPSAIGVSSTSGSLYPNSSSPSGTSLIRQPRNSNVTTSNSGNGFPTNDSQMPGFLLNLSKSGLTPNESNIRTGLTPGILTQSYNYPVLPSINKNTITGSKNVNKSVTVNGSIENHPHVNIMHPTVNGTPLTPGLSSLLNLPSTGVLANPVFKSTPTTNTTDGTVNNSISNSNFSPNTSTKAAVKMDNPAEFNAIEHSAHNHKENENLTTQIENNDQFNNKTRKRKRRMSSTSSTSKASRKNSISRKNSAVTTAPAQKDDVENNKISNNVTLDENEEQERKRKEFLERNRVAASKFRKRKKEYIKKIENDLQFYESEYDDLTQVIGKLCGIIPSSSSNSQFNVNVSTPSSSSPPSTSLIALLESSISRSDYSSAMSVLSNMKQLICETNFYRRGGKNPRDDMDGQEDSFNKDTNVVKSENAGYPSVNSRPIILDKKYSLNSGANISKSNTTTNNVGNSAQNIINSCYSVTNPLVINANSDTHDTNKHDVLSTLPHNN
The experiment in a line: PBM E-score (8-mer binding enrichment) (E-score (-0.5 to 0.5)); higher = stronger / more preferred TF binding; most listed sequences are background and not binding sites. As to conditions: protein concentration: 200 nM; construct: GST-full length. The procedure, abridged: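 Universal all-10-mer Agilent arrays, double-stranded by primer extension on fresh or once-stripped slides, were probed with about 100-200 nM GST-tagged yeast transcription factors made by PURExpress. Fluorescent anti-GST detected bound protein, and masliner normalised the scans. E-scores from the Universal PBM Analysis Suite were given to each ungapped eight-base word pooled with its reverse complement.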
Regarding AGGATCCT, the “PBM E-score” value is -0.0833.
As to CTTTGGGA, the “PBM E-score” value was -0.187.
The same measure for CGGCGCCC: -0.127; for AGCGGATA: -0.246.
For ATCGGGGA, the “PBM E-score” value is -0.224.
With CGGCTCTC, the “PBM E-score” value is -0.176.
With GAGCTCAA, the “PBM E-score” value was -0.0686.
In the case of ACGTTCCT, the “PBM E-score” value amounted to 0.279.
The same measure for CTAACAAG: 0.0229.
Take ACCAAGAG: the “PBM E-score” value is -0.236.
As for GGAATACA, the “PBM E-score” value was -0.0466.
The value for AGAGGCGC was -0.146; that for ACGACCAC was 0.0895; that for GGCTAGAA was -0.19.
The same measure for ACGCCCCT: -0.248.
On to AGAGTGAA, for which the “PBM E-score” value amounted to 0.0907.
Turning to CTCGCTTC, the “PBM E-score” value was -0.2.
Regarding ACGGTAGC, the “PBM E-score” value was determined as 0.037.
As to ACATATGG, the “PBM E-score” value was 0.0278.
Take GGCGCAGA: the “PBM E-score” value was 0.00619.
The same measure for CTACAACC: -0.056.
As for AACGTCGA, the “PBM E-score” value is 0.281.
The value for CAAACGTG was 0.272.
Take TAGCATAA: the “PBM E-score” value came out at 0.0927.
On to CACAATAG, for which the “PBM E-score” value was 0.0487.
The same measure for GGCCGGAA: -0.389.
As to AAGACGGG, the “PBM E-score” value was -0.157.
With GACCGTAA, the “PBM E-score” value was -0.0314.
In the case of AGACGGAC, the “PBM E-score” value was -0.0494.
Turning to CAGCTCTC, the “PBM E-score” value was -0.208.
The value for GCATTACC was -0.0897; that for CAGCAGTA was -0.0325.
Consider AAATCTTG, for which the “PBM E-score” value amounted to 0.158.
The value for TAGGACTA was -0.0581.
For the sequence ATCCCCCA, the “PBM E-score” value is -0.382.
The value for ACTGGAAG was -0.121; that for GCCTAAGC was -0.19; that for GAACGCCC was -0.244.
With AATTACGT, the “PBM E-score” value turned out to be 0.492.
As for ATGTGATA, the “PBM E-score” value was 0.255.
AATTTGGC: the “PBM E-score” value is 0.0233.
For the sequence ACGAGCGC, the “PBM E-score” value amounted to 0.00482.
With ATTCGCCG, the “PBM E-score” value was 0.0444.
As to CGACACCA, the “PBM E-score” value was -0.0439.
The same measure for CGCGTAAG: 0.352.
Turning to CAATTATC, the “PBM E-score” value came to 0.17.
As for GTAGCGAA, the “PBM E-score” value was determined as 0.0889.
The value for CAGCGCCA was -0.133; that for TCTTTAAA was 0.125; that for AGGGTTTA was 0.099.
Consider ATTGAGGG, for which the “PBM E-score” value was -0.27.
AGACTCAC: the “PBM E-score” value was -0.129.
The value for CCGCTCCC was -0.345.
In the case of ATAAGTAT, the “PBM E-score” value was 0.0774.
Regarding ATATCTAG, the “PBM E-score” value was determined as 0.00505.
With CTTCGTTA, the “PBM E-score” value is 0.161.
Take CAGGTTAG: the “PBM E-score” value was -0.279.
CGGCCGCC: the “PBM E-score” value is -0.339.
Regarding AATTGTGC, the “PBM E-score” value worked out at 0.12.
Consider CCTATCGA, for which the “PBM E-score” value was -0.0618.
The same measure for CTCCCACC: -0.366; for CGTCAGGC: 0.272; for GAGGCCGA: -0.183.
Regarding GATGCCAA, the “PBM E-score” value is -0.0661.
Take CCACGACG: the “PBM E-score” value amounted to 0.11.
On to CGTGCTCA, for which the “PBM E-score” value was 0.202.
Consider TAATAGGA, for which the “PBM E-score” value was determined as 0.125.
In the case of GCGTACGA, the “PBM E-score” value was 0.238.
Take ACTTTATG: the “PBM E-score” value was found to be 0.109.
Consider CGTCTAGA, for which the “PBM E-score” value is -0.0458.
With TGACCACA, the “PBM E-score” value was -0.0673.
For GGCCGGCA, the “PBM E-score” value is -0.223.
The value for CGCACTCA was 0.115.
Turning to CGATAGAG, the “PBM E-score” value is -0.0857.
The value for ATTCCAAA was 0.0535; that for AAACATAG was 0.0378; that for ACTTCTAG was -0.279.
Regarding AAGTGCGG, the “PBM E-score” value amounted to 0.0424.
As for CCATTGTC, the “PBM E-score” value is -0.146.
Consider ACAATAGA, for which the “PBM E-score” value came out at 0.0568.
On to GCCAGTAA, for which the “PBM E-score” value was -0.27.
As for ACATGTTC, the “PBM E-score” value is -0.0196.
ATTGGGGG: the “PBM E-score” value is -0.233.
The value for AGCCGTAG was -0.312; that for CAGATCCG was -0.161.
AAATAGCC: the “PBM E-score” value is -0.0119.
